These results are taken from ChEMBL document CHEMBL5308541, “MAIP: An Open-Source Tool to Enrich High-Throughput Screening Output and Identify Novel, Druglike Molecules with Antimalarial Activity” (ACS Med Chem Lett, 2023).

Out of some 150,000 compounds screened, about 540 (0.36%) showed an effect of 50% or more. The list shows a part of the results.

The subject of the test is Plasmodium falciparum. The experiment in a line: Primary screen in NF54 nanoGlo assay, in single point, at 2uM, 72h; a lower Z score goes with more inhibition. The test is classed as functional, Erythrocyte. Conditions: timepoint 72 hour.
On to `CNc1nc(NCc2cc(C)cc3c(C)c(-c4ccccc4)[nH]c23)ncc1F`, for which the % Inhibition – broadly, the drop in the measured response relative to a control, in per cent – was -2% and the Z score amounted to 0.43.

For the compound `COc1cc2nc(N3CC4CNCC4(CN(C)C)C3)nc(N)c2cc1OC` (centres undefined), the “% Inhibition” value turned out to be 5% and the Z score is reported as -0.96.

Turning to `Cc1ccc(CCC(=O)Oc2ccc(-c3nncs3)cc2)c(C)c1`, the “% Inhibition” value is given as -6% and the Z score is 1.09.

On to `O=C(NCC1CCN(CCN2CCOCC2)CC1)c1ccc(-n2cccn2)cc1`, for which the “% Inhibition” value is 2% and the Z score is given as -0.31.

With `O[C@@]1(CN2CCCN(CCCc3ccccc3)CC2)CCNC1`, the “% Inhibition” value is given as -1% and the Z score is recorded as 0.22.

As to `OCC1CCCCCC1NC1CCN(CCC(F)(F)F)CC1` (centres undefined), the “% Inhibition” value is given as -7% and the Z score was 1.47.

For `O=C1C[C@H](NC(=O)C2CCN(C(=O)C3CCCC3)CC2)c2ccccc2N1`, the “% Inhibition” value is -9% and the Z score is 1.55.

Regarding `Cc1ccccc1CN1CCC(CNc2c3c(nc4ccccc24)CCC3)CC1`, the “% Inhibition” value was found to be 94% and the Z score is reported as -16.23.

Take `COc1ccc(CN2CC[C@@H]2CNC2CCN(CC3CC3)CC2)cc1`: the “% Inhibition” value stood at 11% and the Z score is -2.13.

Take `CN(C)C1CCN(CCNC2CCCCCCC2)CC1`: the “% Inhibition” value was 2% and the Z score is reported as -0.42.

As for `CC(C)N(CCN(C)C)c1ncncc1Br`, the “% Inhibition” value stood at 3% and the Z score is -0.68.

As to `O=C(c1ccnc(NCCCNc2cccnc2)c1)N1CCCC1`, the “% Inhibition” value worked out at 0% and the Z score came to 0.07.

`COCCN1CCC[C@H](CNc2nnc(-c3ccccc3)s2)C1`: the “% Inhibition” value is reported as -1% and the Z score was found to be 0.18.

Regarding `Brc1cccc(N[C@H]2CCCNC2)c1`, the “% Inhibition” value is listed as -2% and the Z score was 0.36.

As for `c1ccc2c(N3CCN(Cc4ccc(-n5ccnc5)cc4)CC3)ncnc2c1`, the “% Inhibition” value amounted to 0% and the Z score was found to be 0.08.

Take `CN(CC1CCN(Cc2ccccc2)CC1)c1cc(N)nc(N2CCOCC2)n1`: the “% Inhibition” value is recorded as 6% and the Z score is -0.92.

As to `CC(C)(C(=O)NCc1nnc[nH]1)c1ccc(F)cc1`, the “% Inhibition” value was 1% and the Z score is reported as -0.21.

Take `COc1ccc2[nH]c(C(=O)NC3CCN(c4cnccn4)CC3O)cc2c1` (centres undefined): the “% Inhibition” value was determined as 5% and the Z score is on record as -0.85.

`COC1(c2nc(-c3ccccn3)no2)CCN(CC[C@H]2CCCN2C)CC1`: the “% Inhibition” value is on record as -9% and the Z score is 1.32.

For `CC1CC(NCc2ccc(F)c(C(F)(F)F)c2)CCN1C` (centres undefined), the “% Inhibition” value is recorded as -3% and the Z score is 0.5.

Take `c1cc(CNc2ccc3ncsc3c2)cs1`: the “% Inhibition” value is recorded as -10% and the Z score was 2.15.

As for `Cc1c[nH]c(CN2CCc3nnc(Cc4ccccc4)n3CC2)c(C)c1=O`, the “% Inhibition” value stood at 1% and the Z score is on record as -0.12.

For `COc1ccccc1[C@@H]1CCCN1c1cc(NCC2CC2)ncn1`, the “% Inhibition” value is reported as -2% and the Z score was 0.25.

Consider `Oc1cc(CNCC2(Cn3ccnc3)CC2)nc2c(F)cccc12`, for which the “% Inhibition” value was -4% and the Z score amounted to 0.64.

As for `c1nc(N2CCC(c3nnc[nH]3)CC2)c2[nH]ccc2n1`, the “% Inhibition” value turned out to be 3% and the Z score was -0.4.

For the compound `O=C(NC1CCNCC1O)c1cccc(-c2cnn(Cc3ccccc3)c2)c1` (centres undefined), the “% Inhibition” value is -9% and the Z score was determined as 1.89.

Take `CCc1ccc(CN(C(=O)Cc2c(C)[nH]c(=O)[nH]c2=O)C2CC2)cc1`: the “% Inhibition” value is reported as -5% and the Z score was 0.83.

Regarding `CCN(CC)Cc1cccc(CNc2nc(N)c3cnn(C)c3n2)c1`, the “% Inhibition” value was -8% and the Z score was 1.8.

For `Cc1nn(-c2ccccc2)cc1CN1CC(CO)C(CN2CCN(C)CC2)C1` (centres undefined), the “% Inhibition” value is listed as -8% and the Z score is listed as 1.66.

Take `FC(F)(F)c1c[nH]c([C@H]2CCCN(Cc3ccc4c[nH]nc4c3)C2)n1`: the “% Inhibition” value is listed as -4% and the Z score was 0.77.

`CCN(CC)c1ccc(CNC(=O)c2cccc(-c3cnc(NC4CCCCC4)nc3)c2)cc1`: the “% Inhibition” value is recorded as -4% and the Z score is 0.72.

For `Cc1cccc(CNC(=O)c2cccc(-c3cccc(N4CCNCC4)c3)c2)n1`, the “% Inhibition” value turned out to be 5% and the Z score was -1.04.

In the case of `Fc1cc2[nH]cc(CCNc3ccc4nnc(C5CC5)n4n3)c2cc1Cl`, the “% Inhibition” value is listed as -3% and the Z score amounted to 0.45.

Turning to `OC[C@H](Nc1ncnc2sccc12)c1ccc(Cl)cc1`, the “% Inhibition” value is on record as -22% and the Z score is given as 3.87.

For the compound `CC(C)COC(=O)N1CCC(NC2CC(C)(C)NC(C)(C)C2)CC1`, the “% Inhibition” value is reported as -13% and the Z score came out at 2.77.

Regarding `CN(C)C(=O)CN1CCCN(C2CCN(c3ccccc3Cl)CC2)CC1`, the “% Inhibition” value was 5% and the Z score is given as -1.14.

As to `O=S1(=O)CC[C@H](Nc2cc(-n3ccnc3)ncn2)CC12CCC2`, the “% Inhibition” value is reported as -10% and the Z score turned out to be 2.07.

In the case of `CCN1CCN(CC2CN(C/C=C/c3ccc(OC)cc3)CC2CO)CC1` (centres undefined), the “% Inhibition” value is listed as -3% and the Z score is on record as 0.7.

Regarding `Cc1nc(C2CCNCC2)cc(N2CCN(CC(C)C)[C@@H](CCO)C2)n1`, the “% Inhibition” value was 7% and the Z score is listed as -1.1.

Take `Cc1nonc1C(=O)NCC(=O)NCC(F)F`: the “% Inhibition” value is recorded as -5% and the Z score stood at 0.85.

Turning to `CCN1CCCC[C@H]1C(=O)N[C@H]1CC[C@H](Nc2ccccn2)CC1`, the “% Inhibition” value was -2% and the Z score was 0.4.

`COc1ccc(NC(=O)C2OC(C)CC2C)cc1OCC(F)(F)F` (centres undefined): the “% Inhibition” value was determined as 9% and the Z score was -1.94.
